{"source": "PubChem BioAssay AID504332", "about": "(National Center for Advancing Translational Sciences (NCATS), 2011)", "note": "Values joined by “and” are separate entries in the source; they are usually repeats but may differ in a detail not shown here. Equal values may be shown once. In all, about 350,000 compounds went through this assay and about 31,000 (8.9%) were called active. The inconclusive results got no clear call from the source; some entries with a clear call stand among them for comparison. Calls come from the whole dose curve; as a rule, active = well fitted inhibition curve with a large enough effect; inconclusive = small, poorly fitted or top-dose-only effect; inactive = no such curve, though single readings can be large or run the other way. Where the call is inconclusive, the potency comes from a doubtful curve fit. Some structures have more than one record in an assay (separate samples or runs), and their calls can disagree. % is set by controls: 0 for no effect and ±100 for the full control effect; potency is the fitted concentration of half-maximal effect; tags give direction and shape of the fitted curve."}
{"biological_target": "Histone-lysine N-methyltransferase EHMT2 (Homo sapiens) (UniProt Q96KQ7)", "sequence (Q96KQ7 whole entry, looked up)": "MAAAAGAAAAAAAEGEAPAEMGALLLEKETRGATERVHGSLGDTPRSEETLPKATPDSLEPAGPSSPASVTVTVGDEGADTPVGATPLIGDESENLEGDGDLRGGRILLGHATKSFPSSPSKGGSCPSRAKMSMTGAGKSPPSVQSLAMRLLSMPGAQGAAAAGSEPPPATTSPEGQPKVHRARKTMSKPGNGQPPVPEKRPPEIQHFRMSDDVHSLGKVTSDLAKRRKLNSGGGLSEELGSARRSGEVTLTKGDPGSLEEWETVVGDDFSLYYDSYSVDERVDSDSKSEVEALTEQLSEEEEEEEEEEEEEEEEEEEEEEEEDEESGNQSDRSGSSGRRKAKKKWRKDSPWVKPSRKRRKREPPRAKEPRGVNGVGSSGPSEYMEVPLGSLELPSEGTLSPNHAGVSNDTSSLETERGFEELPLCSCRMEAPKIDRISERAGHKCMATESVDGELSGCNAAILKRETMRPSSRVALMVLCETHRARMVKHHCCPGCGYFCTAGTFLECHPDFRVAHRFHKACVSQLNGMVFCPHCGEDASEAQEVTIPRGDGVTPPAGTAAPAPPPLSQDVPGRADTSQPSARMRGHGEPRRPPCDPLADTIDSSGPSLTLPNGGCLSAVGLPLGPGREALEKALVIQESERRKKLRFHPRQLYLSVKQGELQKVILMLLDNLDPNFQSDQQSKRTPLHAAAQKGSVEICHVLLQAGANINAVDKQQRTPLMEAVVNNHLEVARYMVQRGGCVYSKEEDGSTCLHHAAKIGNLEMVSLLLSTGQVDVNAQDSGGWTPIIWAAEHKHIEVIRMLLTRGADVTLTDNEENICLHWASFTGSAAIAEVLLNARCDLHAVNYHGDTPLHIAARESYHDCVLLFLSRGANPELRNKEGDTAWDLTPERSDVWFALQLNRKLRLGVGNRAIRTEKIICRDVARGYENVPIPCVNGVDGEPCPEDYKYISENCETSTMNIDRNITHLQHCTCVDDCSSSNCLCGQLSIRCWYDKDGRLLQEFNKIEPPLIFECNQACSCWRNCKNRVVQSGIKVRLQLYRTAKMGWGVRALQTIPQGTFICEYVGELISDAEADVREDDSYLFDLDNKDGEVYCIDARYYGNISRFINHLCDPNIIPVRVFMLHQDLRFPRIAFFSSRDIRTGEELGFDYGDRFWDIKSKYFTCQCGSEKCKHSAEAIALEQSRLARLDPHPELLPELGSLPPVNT", "assay": "qHTS Assay for Inhibitors of Histone Lysine Methyltransferase G9a; note: nearly all actives have a fitted effect of over 75% in size", "conditions": "G9a H3K9 monomethylation, AlphaScreen, 2 h; activity, negative = inhibition: at 59 µM (top of the series) unless noted", "procedure,_shortened": "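Chemiluminescent proximity detection of H3K9 monomethylation, read after 10 min bead incubation in the dark. Reaction: 20 nM G9a, 500 nM biotin-H3K9 peptide, 20 uM SAM cofactor, 2 h, room temperature, following 15 min enzyme-compound preincubation.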"}
{"molecule": "CN(CC(=O)Nc1cccc(F)c1)C(=O)c1cccc2ccccc12", "Potency": "inactive"}
{"molecule": "O=C(O)c1oc2ccc(Br)cc2c1-n1cccc1", "Potency": "inconclusive: 10 µM [inhibitor, partial curve]"}
{"molecule": "CN(C(=O)CSc1nnc(-c2ccccc2F)n1N)C1CCCCC1", "activity, negative = inhibition": "inactive: -5.91% [at 12.7 µM]"}
{"molecule": "O=C(/C=C/c1ccc(F)cc1)NC(=S)NNC(=O)c1cccnc1", "Potency": "inconclusive: 25.1 µM [inhibitor, single point]"}
{"molecule": "NC(=O)c1cc2c(s1)-c1cc(Cl)ccc1SC2", "Potency": "inconclusive: 79.4 µM [inhibitor, single point]"}
{"molecule": "CC(C)c1ccc(SCc2noc(C(=O)NCC3CCCO3)c2C(=O)O)cc1", "note": "(stereo not given)", "activity, negative = inhibition": "inactive: 20.6% [at 0.501 µM]"}
{"molecule": "Fc1ccc(-c2[nH]ncc2CN2CCN(c3ccc(F)cc3)CC2)cc1", "Potency": "inconclusive: 79.4 µM [inhibitor, partial curve, poor fit]"}
{"molecule": "Cc1ccc(C(=O)NC(=S)NNC(=O)CC#N)cc1", "Potency": "active: 8.91 µM"}
{"molecule": "CC12CC(c3ccccc3O1)C(C(=O)NCc1ccccc1)C(=O)N2", "note": "(stereo not given)", "Potency": "inconclusive: 89.1 µM [inhibitor, partial curve, poor fit]"}
{"molecule": "Cc1ccc(-c2nnnn2C2C/C(=N\\NC(N)=S)C3OCC2O3)cc1", "note": "(stereo not given)", "Potency": "inconclusive: 44.7 µM [inhibitor, partial curve, poor fit]"}
{"molecule": "CN(CCOc1ccccc1)C(=O)c1cc(COc2c(F)cccc2F)on1", "Potency": "inconclusive: 31.6 µM [inhibitor, single point]"}
{"molecule": "O=C(COc1ccc(F)cc1)OCc1cc(=O)n2nc(C3CCCCC3)sc2n1", "Potency": "inactive"}
{"molecule": "CC(C)(C)c1cc(-c2n[nH]c(=S)n2-c2ccc(Cl)cc2)n[nH]1", "Potency": "inconclusive: 11.2 µM [inhibitor, full curve, poor fit]"}
{"molecule": "COc1ccc(N2CCN(c3ncnc4c3[nH]c3ccccc34)CC2)cc1", "Potency": "active: 12.6 µM"}
{"molecule": "Cc1cc(Cl)c(OCCCN(C)C)c(Br)c1", "Potency": "active: 11.2 µM"}
{"molecule": "CN1C(=O)N(CC(=O)N2CCN(S(=O)(=O)c3ccc(Cl)s3)CC2)C(=O)C12CCCCC2", "activity, negative = inhibition": "inconclusive: -116% [inhibitor] [at 12.7 µM]"}
{"molecule": "CN(C)c1ccc(NC(=O)CSc2nnc(-c3ccco3)c(-c3ccco3)n2)cc1", "Potency": "active: 25.1 µM"}
{"molecule": "CC(C)CCNC(=O)c1ccc2c(c1)NC(=O)C(CS(=O)(=O)Cc1ccc(F)cc1)N2", "note": "(stereo not given)", "Potency": "inconclusive: 25.1 µM [inhibitor, partial curve, poor fit]"}
{"molecule": "Nc1ccc2oc(-c3cccc4ccccc34)nc2c1", "activity, negative = inhibition": "inactive: 19.3% [at 2.33 µM]"}
{"molecule": "COCCN(C(=S)Nc1c(C)cc(C)cc1C)C(C)c1cccnc1", "note": "(stereo not given)", "Potency": "active: 7.08 µM"}
{"molecule": "CCOc1ccc(/C(CCC(=O)O)=N/NC(=S)NC(C)C)cc1", "Potency": "active: 22.4 µM"}
{"molecule": "Cc1ccc(C(=O)Nc2nc3ccc(S(C)(=O)=O)cc3s2)o1", "Potency": "inconclusive: 31.6 µM [inhibitor, single point]"}
{"molecule": "c1ccc(Cc2nc3ccccc3o2)cc1", "Potency": "inconclusive: 3.98 µM [inhibitor, partial curve, poor fit]"}
{"molecule": "COCc1ccc(C(=O)OC(C)C(=O)Nc2c(C)n(C)n(-c3ccccc3)c2=O)cc1", "note": "(stereo not given)", "Potency": "inactive"}
{"molecule": "O=C1C(SCCO)=C(SCCO)C(=O)c2ccccc21", "Potency": "active: 1.26 µM"}
{"molecule": "O=C(CCSc1nc(-c2ccco2)cc(C(F)(F)F)n1)NCc1ccccn1", "Potency": "inconclusive: 7.08 µM [inhibitor, single point]"}
{"molecule": "O=C(Nc1ccccc1)N1CCC2(CC1)CCN(S(=O)(=O)c1ccccc1)CC2", "activity, negative = inhibition": "inactive: 4.57% [at 12.7 µM]"}
{"molecule": "COc1ccccc1C(=O)Nc1nc2nc(C)cc(=O)n2[nH]1", "Potency": "inactive"}
{"molecule": "O=C(O)c1ccc(/C=N/NC(=O)c2cc3c(ccc4ccccc43)o2)cc1", "Potency": "inconclusive: 39.8 µM [inhibitor, single point]"}
{"molecule": "CC(C)(C)c1ccc(-c2nc(C#N)c(NCc3ccncc3)o2)cc1", "Potency": "active: 20 µM"}
{"molecule": "C=CCOC(=O)C1=C[C@H](c2cn(C(C)=O)c3ccccc23)C[C@H](OCCCCO)O1", "activity, negative = inhibition": "inconclusive: -90% [inhibitor]"}
{"molecule": "COc1ccc(Oc2ncc3nc(-c4ccc(F)cc4)c(=O)n(Cc4cccs4)c3n2)cc1", "activity, negative = inhibition": "inactive: 11.5% [at 0.501 µM]"}
{"molecule": "COc1cc(C(c2c(C)[nH][nH]c2=O)c2c(C)[nH][nH]c2=O)ccc1OCc1ccc([N+](=O)[O-])cc1", "Potency": "inconclusive: 1 µM [inhibitor, partial curve, poor fit]"}
{"molecule": "Cc1ccc(NC(=O)CSc2nc(=O)n(CCN(C)C)c3c2CCCC3)cc1Cl", "Potency": "inconclusive: 79.4 µM [inhibitor, partial curve, poor fit]"}
{"molecule": "Cc1ccc(CSc2nnc(SCC(=O)N/N=C/c3c(C)nn(-c4ccccc4)c3C)s2)cc1", "Potency": "inconclusive: 4.47 µM [inhibitor, full curve]"}
{"molecule": "COc1cc(OC)cc(-c2sc3ccc(OC)cc3c2C#CC(C)(C)O)c1", "activity, negative = inhibition": "inactive: 7.58% [at 0.501 µM]"}
{"molecule": "N#Cc1nc(COc2ccccc2)oc1N1CCN(Cc2ccccc2)CC1", "activity, negative = inhibition": "inconclusive: -102% [inhibitor]"}
{"molecule": "COc1ccc2[nH]c(=O)c(COC(=O)c3cccs3)cc2c1", "Potency": "inconclusive: 79.4 µM [inhibitor, single point]"}
{"molecule": "COc1ccc(Nc2nc3c(c(=O)n(C)c(=O)n3C)n2CCO)cc1", "Potency": "inconclusive: 89.1 µM [inhibitor, partial curve, poor fit]"}
{"molecule": "CCOC(=O)Cn1nc(C)c(NC(=O)COc2ccccc2[N+](=O)[O-])c1C", "Potency": "inactive"}
{"molecule": "Cc1ccc(NC(=O)CN2C(=O)S/C(=C\\c3cccn3-c3cccc(C(=O)O)c3)C2=O)c(C)c1", "Potency": "inconclusive: 39.8 µM [inhibitor, single point]"}
{"molecule": "Cn1cc(CCC(=O)N2CCCC(N3CCN(c4ccccc4F)CC3)C2)cn1", "note": "(stereo not given)", "Potency": "inactive"}
{"molecule": "CCCOc1ccc(N2C(=O)CC(N(CCc3ccc(OC)cc3)C(=O)/C=C/C(=O)O)C2=O)cc1", "note": "(stereo not given)", "Potency": "inconclusive: 0.316 µM [inhibitor, partial curve, poor fit]"}
{"molecule": "C=CCc1ccccc1OCC(O)CN1CCN(Cc2ccc3c(c2)OCO3)CC1", "note": "(stereo not given)", "Potency": "active: 44.7 µM"}
{"molecule": "CCOC(=O)c1c(C)oc2ccc(N(C(=O)c3ccncc3)S(=O)(=O)c3ccc(CC)cc3)cc12", "Potency": "inconclusive: 0.1 µM [inhibitor, full curve, poor fit]"}
{"molecule": "COc1ccc(OC)c2[nH]c(C(=O)N3CCC(C(=O)O)CC3)cc12", "Potency": "inactive"}
{"molecule": "Cc1onc(-c2ccccc2)c1C(=O)OCC(=O)N(C)c1c(N)n(Cc2ccccc2)c(=O)[nH]c1=O", "Potency": "inconclusive: 50.1 µM [inhibitor, partial curve, poor fit]"}
{"molecule": "COc1ccc(OC)c(S(=O)(=O)Nc2ccc3c(c2)n(C)c(=O)n3C)c1", "Potency": "inconclusive: 11.2 µM [inhibitor, full curve, poor fit] and inconclusive: 89.1 µM [inhibitor, partial curve, poor fit]"}
{"molecule": "O=S(=O)(Nc1nc2ccccc2nc1Cl)c1ccc2ccccc2c1", "Potency": "inconclusive: 28.2 µM [inhibitor, partial curve, poor fit]"}
{"molecule": "O=C(Nc1nc2c(s1)CCCC2)c1cc(-c2ccncc2)nc2ccccc12", "Potency": "inconclusive: 89.1 µM [inhibitor, single point]"}
{"molecule": "O=c1cc(-c2cccc(F)c2)[nH]c2ccc(Cl)cc12", "Potency": "inconclusive: 0.501 µM [inhibitor, full curve, poor fit]"}
{"molecule": "CCN(CC)/C(Sc1ccccc1)=C(/C(Cl)=C(Cl)Cl)[N+](=O)[O-]", "Potency": "inconclusive: 79.4 µM [inhibitor, partial curve]"}
{"molecule": "Cn1c(=O)[nH]c(=O)c2c1nc(SCCN1CCOCC1)n2Cc1ccccc1", "Potency": "inconclusive: 89.1 µM [inhibitor, partial curve, poor fit]"}
{"molecule": "CC1CCCN1CC#CC(O)(c1ccccc1)c1ccccc1", "note": "(stereo not given)", "Potency": "inconclusive: 39.8 µM [inhibitor, partial curve, poor fit]"}
{"molecule": "COc1cccc(C(=O)NCCS(=O)(=O)N2CCOCC2)c1", "Potency": "active: 22.4 µM"}
{"molecule": "Cc1ccc(S(=O)(=O)N2CC=C(c3c(C)n(CC(=O)N4CCCC4)c4ccccc34)CC2)cc1C", "Potency": "inactive"}
{"molecule": "COc1ccc(C(=O)Oc2ccc3oc(=O)sc3c2)cc1", "Potency": "inconclusive: 14.1 µM [inhibitor, partial curve, poor fit]"}
{"molecule": "C=C(C)CCC(C)N1CCC(n2nccc2NC(=O)CCCc2ccccc2)CC1", "note": "(stereo not given)", "Potency": "active: 79.4 µM"}
{"molecule": "Cc1cc(C)cc(-c2nnc(SCC(=O)c3c(N)n(C4CC4)c(=O)[nH]c3=O)o2)c1", "Potency": "inconclusive: 50.1 µM [inhibitor, partial curve]"}
{"molecule": "Cn1nc(C(=O)Nc2ccc(S(=O)(=O)N3CCCCC3)cc2)c2ccccc2c1=O", "Potency": "inconclusive: 39.8 µM [inhibitor, full curve]"}
{"molecule": "O=C(CCN=C1NS(=O)(=O)c2ccccc21)OCC(=O)c1ccc(F)cc1", "Potency": "inconclusive: 44.7 µM [inhibitor, partial curve, poor fit]"}
{"molecule": "CCc1ccc(NC(=O)c2nc3nc(C)cc(C(F)F)n3n2)cc1", "Potency": "inactive"}
{"molecule": "CC(C)(C)c1ccc(C(=O)NCCCN2CCN(CCCNC(=O)c3ccc(C(C)(C)C)cc3)CC2)cc1", "Potency": "inconclusive: 79.4 µM [inhibitor, single point]"}
{"molecule": "O=C1NC(=S)S/C1=C/c1ccc(Oc2cnccn2)cc1", "Potency": "inconclusive: 79.4 µM [inhibitor, partial curve, poor fit]"}
{"molecule": "Cc1ccc2c(c1)NC(=O)C(CC(=O)NCCCN1CCN(C3CCCCC3)CC1)O2", "note": "(stereo not given)", "Potency": "inconclusive: 39.8 µM [inhibitor, single point]"}
